The list shows a part of the results. These are noisy estimates, calculated here from bound and input reads.
Target: T1, Pho4 (S. cerevisiae) (UniProt P07270)
T1 sequence: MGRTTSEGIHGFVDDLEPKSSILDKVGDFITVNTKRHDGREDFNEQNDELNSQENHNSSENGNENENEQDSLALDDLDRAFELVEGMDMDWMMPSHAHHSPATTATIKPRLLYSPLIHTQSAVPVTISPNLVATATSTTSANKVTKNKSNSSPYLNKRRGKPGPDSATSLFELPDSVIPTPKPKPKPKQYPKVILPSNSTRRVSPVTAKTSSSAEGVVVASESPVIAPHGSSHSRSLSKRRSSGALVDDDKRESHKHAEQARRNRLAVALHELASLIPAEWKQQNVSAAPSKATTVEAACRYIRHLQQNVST
Assay: relative binding free energy (BET-seq); higher = weaker binding
Settings: reference: library average

| Sequence | relative binding free energy [kcal/mol] |
| --- | --- |
| ATTATCACGTGGGCTG | -0.12 |
| TGGCACACGTGCGTGT | 0.05 |
| GTGTGCACGTGAGGCT | 0.28 |
| CAGGGCACGTGTGTGT | -0.02 |
| CGGGGCACGTGACTTG | 0.16 |
| CTTGTCACGTGGGCCG | 0.03 |
| GGTTACACGTGTGTCG | 0.15 |
| TATTTCACGTGTATTT | 0.29 |
| GATTCCACGTGGGTTG | 0.11 |
| ATAAGCACGTGGAGAT | -0.01 |
| CTTTGCACGTGGAGAT | 0.04 |
| CGCTTCACGTGAGGTG | 0.58 |
| AGTATCACGTGGGTAG | 0.01 |
| ATTGACACGTGTATTT | -0.05 |
| ATCAGCACGTGAGGAT | 0.25 |
| AGGCGCACGTGTTTAG | -0.05 |
| GGGGGCACGTGGGCCA | -0.12 |
| ATTAGCACGTGTTTGA | -0.1 |
| GTGGGCACGTGGGTGA | -0.17 |
| GGTGACACGTGGCTGG | 0.02 |
| CTGTTCACGTGGCATT | 0.27 |
| AGTAGCACGTGGGCCG | -0.18 |
| TGGAGCACGTGCGGAA | -0.06 |

| Sequence | relative binding free energy [kcal/mol] |
| --- | --- |
| AGTCTCACGTGTTAGG | 0.25 |
| TGTGGCACGTGTATTT | 0.03 |
| TCACTCACGTGTTTTG | 0.33 |
| TGTAACACGTGTTGTT | -0.09 |
| TGGGCCACGTGATGTC | 0.21 |
| CTTTGCACGTGCGATT | 0.06 |
| TGGCACACGTGGTGGT | 0.1 |
| TGCATCACGTGGTGTA | 0.04 |
| GATATCACGTGTTGCT | 0.14 |
| TGTTACACGTGATTTG | 0.26 |
| GAGTGCACGTGGTACT | -0.08 |
| TTTTTCACGTGGTGCT | 0.32 |
| TGTGTCACGTGAAGTC | 0.32 |
| AGGCTCACGTGATTTA | 0.23 |
| TTTGGCACGTGAGTTC | 0.25 |
| ACGGGCACGTGTTAGT | -0.2 |
| TAGGTCACGTGCGGAT | 0.02 |
| CTGCGCACGTGGGTGT | -0.31 |
| TATTGCACGTGTTCGT | 0.01 |
| CGTATCACGTGCGGGG | 0.04 |
| AGTAACACGTGGGTAT | -0.21 |
| TGGTGCACGTGTGACG | -0.06 |
| TTAGACACGTGGTTGC | -0.05 |

| Sequence | relative binding free energy [kcal/mol] |
| --- | --- |
| AGTTTCACGTGAGCAA | 0.37 |
| GCCGTCACGTGGTGTG | 0.12 |
| AGGGTCACGTGGCAGG | 0 |
| CATTACACGTGAGGTG | 0.22 |
| ATGAGCACGTGCTGGT | -0.26 |
| CTTGACACGTGTTGAT | 0.07 |
| GTCGGCACGTGGTGAA | -0.12 |
| AGTGACACGTGCATTG | -0.02 |
| CTTTTCACGTGGAGTG | 0.1 |
| GGGCTCACGTGGTAAT | 0.24 |
| GGCGTCACGTGGGGAA | -0.14 |
| TATTGCACGTGTCTGG | 0.11 |
| CTGTGCACGTGGTGCG | -0.1 |
| GGCAACACGTGGTATG | -0.06 |
| TGATCCACGTGTGGAG | 0.22 |
| ATAATCACGTGGAGGG | 0.15 |
| GAGTACACGTGGTGCT | 0.13 |
| AATTGCACGTGGCTGT | 0.05 |
| TTGGTCACGTGGGAAA | 0.02 |
| TATTTCACGTGAGTGA | 0.33 |
| TGCTTCACGTGTTTCA | 0.33 |
| TTGTGCACGTGGATGT | 0.06 |
| AAGTCCACGTGTTAGG | 0.14 |

| Sequence | relative binding free energy [kcal/mol] |
| --- | --- |
| GGTCACACGTGCGGTG | 0.14 |
| GTGGGCACGTGTGGCA | -0.06 |
| TGAGGCACGTGCCGTT | -0.18 |
| GTACGCACGTGCAGGT | 0.04 |
| GGGAGCACGTGATGGC | 0.07 |
| TCGCTCACGTGGAGGG | 0.19 |
| ATCCGCACGTGGTGTG | -0.23 |
| TTTGTCACGTGGTGAT | 0.08 |
| ATGGGCACGTGATGGG | 0.03 |
| TAGGTCACGTGGCGTA | 0.04 |
| TTTTACACGTGGCTCT | 0.19 |
| GCGCTCACGTGTTGTG | 0.17 |
| TGCCTCACGTGCGGGT | 0.06 |
| GGGATCACGTGATGGA | 0.36 |
| GTTGACACGTGCTGGG | -0.11 |
| TTGAGCACGTGTTGAT | -0.04 |
| TTTCGCACGTGTTTCG | -0.08 |
| GAATTCACGTGAATGG | 0.39 |
| CGTCGCACGTGGAGTT | 0 |
| TGGTTCACGTGTTGAG | 0.3 |
| CCTGGCACGTGTGTGT | -0.14 |
| GTAATCACGTGGGGCG | 0.11 |
| GTTTGCACGTGTCATA | 0.08 |

| Sequence | relative binding free energy [kcal/mol] |
| --- | --- |
| GAGGGCACGTGTTGGC | -0.07 |
| TTGATCACGTGAACTG | 0.39 |
| ACGTTCACGTGTTGGT | 0.23 |
| TGAATCACGTGAGGAG | 0.25 |
| GAGGACACGTGGTTAG | -0.09 |
| AATGACACGTGTGTGA | 0.01 |
| TATGACACGTGGTTGT | 0.02 |
| GGGCGCACGTGTATGT | -0.11 |
| CGGTACACGTGCTTGG | 0.05 |
| TGTGACACGTGTAGGG | 0.03 |
| AGCTGCACGTGGGAGA | -0.16 |
| GGCTACACGTGTGCGG | 0.18 |
| AATCGCACGTGTGGTA | 0 |
| CCGGTCACGTGAGTAG | 0.32 |
| AAAGGCACGTGTACTG | -0.03 |
| CATGGCACGTGGGTAC | -0.09 |
| TTTAGCACGTGGGTTA | -0.21 |
| CGGATCACGTGTGTAG | 0.2 |
| GGCTACACGTGAGTGG | 0.24 |
| CTTGGCACGTGGTCGT | -0.17 |
| TTTGGCACGTGTGTCC | -0.08 |
| TTTCACACGTGTTCGT | 0.13 |
| TTATTCACGTGGCAAG | 0.32 |

Source: the BET-seq Pho4 binding data (Le et al. 2018)
